Data on 14 test systems can be found in the supplement of paper PMC9927326.

Holding throughout (assay): CLSI broth microdilution.
A general note: Dilution methods test growth across graded concentrations, often in twofold steps.

Compound in one assay: CC[C@@H]([C@H](C)O)n1ncn(-c2ccc(N3CCN(c4ccc(OC[C@@H]5CO[C@@](Cn6cncn6)(c6ccc(F)cc6F)C5)cc4)CC3)cc2)c1=O [posaconazole]
Compound in another assay: CC[C@H](C)C[C@H](C)CCCCCCCCC(=O)N[C@H]1C[C@@H](O)[C@@H](NCCN)NC(=O)[C@@H]2[C@@H](O)CCN2C(=O)[C@H]([C@H](O)CCN)NC(=O)[C@H]([C@H](O)[C@@H](O)c2ccc(O)cc2)NC(=O)[C@@H]2C[C@@H](O)CN2C(=O)[C@H]([C@@H](C)O)NC1=O [caspofungin]
Compound in the next assay: OC(Cn1cncn1)(Cn1cncn1)c1ccc(F)cc1F [fluconazole]
Compound in the next assay: C[C@@H]1[C@H](O)[C@@H](C)/C=C/C=C/C=C/C=C/C=C/C=C/C=C/[C@H](O[C@@H]2O[C@H](C)[C@@H](O)[C@H](N)[C@@H]2O)C[C@@H]2O[C@](O)(C[C@@H](O)C[C@@H](O)[C@H](O)CC[C@@H](O)C[C@@H](O)CC(=O)O[C@H]1C)C[C@H](O)[C@H]2C(=O)O [amphotericin B]
Compound in a further assay: CCC(C)n1ncn(-c2ccc(N3CCN(c4ccc(OCC5COC(Cn6cncn6)(c6ccc(Cl)cc6Cl)O5)cc4)CC3)cc2)c1=O [itraconazole]
Compound in the next assay: C[C@@H](c1ncncc1F)[C@](O)(Cn1cncn1)c1ccc(F)cc1F [voriconazole]
Compound in another assay: Nc1[nH]c(=O)ncc1F [flucytosine]
Compound in another assay: CCCCCOc1ccc(-c2cc(-c3ccc(C(=O)N[C@H]4C[C@@H](O)[C@@H](O)NC(=O)[C@@H]5[C@@H](O)[C@@H](C)CN5C(=O)[C@H]([C@H](O)CC(N)=O)NC(=O)[C@H]([C@H](O)[C@@H](O)c5ccc(O)c(OS(=O)(=O)O)c5)NC(=O)[C@@H]5C[C@@H](O)CN5C(=O)[C@H]([C@@H](C)O)NC4=O)cc3)no2)cc1 [micafungin]
Compound in another assay: CCCCCOc1ccc(-c2ccc(-c3ccc(C(=O)N[C@H]4C[C@@H](O)[C@@H](O)NC(=O)[C@@H]5[C@@H](O)[C@@H](C)CN5C(=O)[C@H]([C@@H](C)O)NC(=O)[C@H]([C@H](O)[C@@H](O)c5ccc(O)cc5)NC(=O)[C@@H]5C[C@@H](O)CN5C(=O)[C@H]([C@@H](C)O)NC4=O)cc3)cc2)cc1 [anidulafungin]

MIC of clinical C. albicans isolates, CLSI broth microdilution (ranges and time not stated); higher = less susceptible. Call: susceptible or wild type [S] / resistant or non-wild type [R] by CLSI breakpoints or epidemiological cut-offs; intermediate and dose-dependent carry no call here (the paper groups them with resistant). '<=' and '>=' mark each drug's lowest and highest value, inferred; the source prints them plain. Isolates are numbered anew.

For orientation: MIC means the lowest concentration found to suppress growth. As for “Candida albicans isolate 357 (Erg11p: WT, Fur1p: WT, Tac1p: I558V,A377V,F189S,N174D,M170I,K87N)”, the MIC is 0.015 mg/L [S] with posaconazole; 0.03 mg/L [S] with caspofungin; 0.25 mg/L [S] with fluconazole; 1 mg/L [S] with amphotericin B; 0.03 mg/L [S] with itraconazole; not above 0.008 mg/L [S] with voriconazole. Also, the MIC was not above 0.06 mg/L [S] in the assay with flucytosine, 0.015 mg/L [S] in the assay with micafungin and 0.03 mg/L [S] with anidulafungin.
On to “Candida albicans isolate 358 (Erg11p: V437I,E266D, Fur1p: WT, Tac1p: S937L,I895T,L695F,I558V,F189S,L131I)”, for which the MIC in the assay with posaconazole was found to be 0.015 mg/L [S]; with caspofungin, 0.03 mg/L [S]; with fluconazole, 1 mg/L [S]; with amphotericin B it was 0.25 mg/L [S]; with itraconazole, 0.03 mg/L [S]; in the assay with voriconazole it was 0.015 mg/L [S]. Also, the minimum inhibitory concentration (MIC) with flucytosine is not above 0.06 mg/L [S]; with micafungin, 0.015 mg/L [S]; in the assay with anidulafungin, 0.06 mg/L [S].
With “Candida albicans isolate 359 (Erg11p: WT, Fur1p: WT, Tac1p: I558V,A377V,F189S,N174D,M170I,K87N)”, the MIC with posaconazole was 0.015 mg/L [S]; in the assay with caspofungin, 0.06 mg/L [S]; with fluconazole it was 0.25 mg/L [S]; with amphotericin B, 0.5 mg/L [S]; with itraconazole, 0.03 mg/L [S]; with voriconazole it was not above 0.008 mg/L [S]. Besides, the MIC was not above 0.06 mg/L [S] in the assay with flucytosine, 0.015 mg/L [S] with micafungin and 0.03 mg/L [S] with anidulafungin.
For “Candida albicans isolate 360 (Erg11p: WT, Fur1p: WT, Tac1p: I558V,A377V,F189S,N174D,M170I,K87N)”, the MIC with posaconazole is 0.015 mg/L [S]; in the assay with caspofungin it was 0.03 mg/L [S]; with fluconazole, not above 0.12 mg/L [S]; with amphotericin B, 0.5 mg/L [S]; with itraconazole, not above 0.015 mg/L [S]; with voriconazole it was not above 0.008 mg/L [S]. For the same test system, the MIC with flucytosine was not above 0.06 mg/L [S]; with micafungin it was not above 0.008 mg/L [S]; with anidulafungin, not above 0.015 mg/L [S].
In the case of “Candida albicans isolate 361 (Erg11p: D153E, Fur1p: WT, Tac1p: N896S)”, the MIC was 0.015 mg/L [S] in the assay with posaconazole; 0.03 mg/L [S] with caspofungin; 0.5 mg/L [S] with fluconazole; 0.25 mg/L [S] with amphotericin B; 0.03 mg/L [S] with itraconazole; not above 0.008 mg/L [S] with voriconazole. The minimal inhibitory concentration (MIC) is not above 0.06 mg/L [S] with flucytosine, 0.015 mg/L [S] with micafungin and 0.03 mg/L [S] in the assay with anidulafungin.
For “Candida albicans isolate 362 (Erg11p: D153E, Fur1p: WT, Tac1p: N896S)”, the MIC with posaconazole is 0.03 mg/L [S]; in the assay with caspofungin it was 0.03 mg/L [S]; with fluconazole, 0.5 mg/L [S]; in the assay with amphotericin B, 0.25 mg/L [S]; in the assay with itraconazole, 0.06 mg/L [S]; with voriconazole it was not above 0.008 mg/L [S]. Also, the figures for the MIC in the assay with flucytosine, with micafungin and with anidulafungin were not above 0.06 mg/L [S], 0.015 mg/L [S] and 0.03 mg/L [S], respectively.
On to “Candida albicans isolate 363 (Erg11p: V488I,E266D, Fur1p: WT, Tac1p: N896S,A377V,F189S,N174D,M170I,K87N)”, for which the MIC in the assay with posaconazole was 0.015 mg/L [S]; with caspofungin it was 0.015 mg/L [S]; in the assay with fluconazole, 0.25 mg/L [S]; with amphotericin B, 0.25 mg/L [S]; with itraconazole, 0.03 mg/L [S]; with voriconazole, not above 0.008 mg/L [S]. Also, the MIC in the assay with flucytosine is not above 0.06 mg/L [S]; in the assay with micafungin, 0.015 mg/L [S]; with anidulafungin it was 0.06 mg/L [S].
Regarding “Candida albicans isolate 364 (Erg11p: V488I,E266D, Fur1p: WT, Tac1p: N896S)”, the MIC with posaconazole is 0.015 mg/L [S]; with caspofungin it was 0.015 mg/L [S]; with fluconazole, 0.25 mg/L [S]; in the assay with amphotericin B, 0.25 mg/L [S]; in the assay with itraconazole, not above 0.015 mg/L [S]; in the assay with voriconazole, not above 0.008 mg/L [S]. Further, the values for the MIC with flucytosine, with micafungin and with anidulafungin were not above 0.06 mg/L [S], not above 0.008 mg/L [S] and 0.06 mg/L [S], respectively.
For “Candida albicans isolate 365 (Erg11p: Y132H,T123I, Fur1p: R101C, Tac1p: WT)”, the MIC came out at 0.25 mg/L [R] with posaconazole; 0.25 mg/L [S] with caspofungin; 64 mg/L [R] with fluconazole; 1 mg/L [S] in the assay with amphotericin B; 0.5 mg/L [R] in the assay with itraconazole; 2 mg/L [R] with voriconazole. Moreover, the MIC in the assay with flucytosine was found to be 8 mg/L [R]; with micafungin it was 0.12 mg/L [S]; with anidulafungin, 0.06 mg/L [S].
Consider “Candida albicans isolate 366 (Erg11p: E266D, Fur1p: WT, Tac1p: I558V,A377V,F189S,N174D,M170I,K87N)”, for which the MIC in the assay with posaconazole was 0.015 mg/L [S]; with caspofungin, 0.03 mg/L [S]; with fluconazole, 0.5 mg/L [S]; with amphotericin B it was 0.5 mg/L [S]; with itraconazole, 0.06 mg/L [S]; in the assay with voriconazole, not above 0.008 mg/L [S]. In addition, the MIC was not above 0.06 mg/L [S] in the assay with flucytosine, not above 0.008 mg/L [S] with micafungin and 0.06 mg/L [S] with anidulafungin.
On to “Candida albicans isolate 367 (Erg11p: E266D, Fur1p: WT, Tac1p: T885K,I558V,A430V,A377V,F189S,N174D,M170I,M170V,K87N)”, for which the MIC is 0.015 mg/L [S] with posaconazole; 0.03 mg/L [S] in the assay with caspofungin; 0.25 mg/L [S] with fluconazole; 0.25 mg/L [S] with amphotericin B; not above 0.015 mg/L [S] in the assay with itraconazole; not above 0.008 mg/L [S] in the assay with voriconazole. The MIC with flucytosine is not above 0.06 mg/L [S]; with micafungin, 0.015 mg/L [S]; with anidulafungin it was not above 0.015 mg/L [S].
Regarding “Candida albicans isolate 368 (Erg11p: E266D,G129A, Fur1p: WT, Tac1p: R869Q,L695F,I558V,A377V,F189S,M170V,L131I)”, the MIC with posaconazole is 0.015 mg/L [S]; in the assay with caspofungin, 0.015 mg/L [S]; in the assay with fluconazole, 0.5 mg/L [S]; with amphotericin B, 0.5 mg/L [S]; with itraconazole, 0.03 mg/L [S]; in the assay with voriconazole, not above 0.008 mg/L [S]. Also, the MIC with flucytosine was not above 0.06 mg/L [S]; with micafungin, 0.015 mg/L [S]; with anidulafungin it was not above 0.015 mg/L [S].
For “Candida albicans isolate 369 (Erg11p: WT, Fur1p: WT, Tac1p: WT)”, the MIC was 0.015 mg/L [S] with posaconazole; 0.03 mg/L [S] with caspofungin; 0.5 mg/L [S] in the assay with fluconazole; 0.5 mg/L [S] with amphotericin B; 0.03 mg/L [S] in the assay with itraconazole; not above 0.008 mg/L [S] with voriconazole. Moreover, the minimum inhibitory concentration (MIC) in the assay with flucytosine is not above 0.06 mg/L [S]; with micafungin it was not above 0.008 mg/L [S]; in the assay with anidulafungin it was 0.06 mg/L [S].
For “Candida albicans isolate 370 (Erg11p: V488I,E266D, Fur1p: WT, Tac1p: N896S,L751S,M170V,S108N)”, the MIC with posaconazole is not above 0.008 mg/L [S]; with caspofungin it was 0.03 mg/L [S]; with fluconazole it was 0.25 mg/L [S]; with amphotericin B, 0.25 mg/L [S]; with itraconazole, not above 0.015 mg/L [S]; with voriconazole, not above 0.008 mg/L [S]. Further, the minimum inhibitory concentration (MIC) is not above 0.06 mg/L [S] in the assay with flucytosine, 0.015 mg/L [S] in the assay with micafungin and 0.06 mg/L [S] with anidulafungin.
